Test results as given in the supplement of paper PMC8728848.
The other results are listed elsewhere or left out.

Legend:
Assay in all cases: glycan array binding signal (z-score within array); higher = stronger binding
Conditions in all cases: glycan notation: IUPAC condensed, linker removed
Fuc(a1-2)Gal = target: Fuc(a1-2)Gal
How it was run: (§1)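 From the Consortium for Functional Glycomics database, 3228 arrays were curated, keeping only those whose protein sequence was available. Binding is given as a within-array Z-score averaged across arrays sharing a protein sequence and across linkers. Negative Z-scores can be read as non-binding.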

Fuc(a1-2)Gal(b1-3)GalNAc = target: Fuc(a1-2)Gal(b1-3)GalNAc
How it was run: as §1

[1] = target: Fuc(a1-2)Gal(b1-3)GalNAc(b1-3)Gal
How it was run: as §1

[2] = target: Fuc(a1-2)Gal(b1-3)GalNAc(b1-3)Gal(a1-4)Gal(b1-4)Glc
How it was run: as §1

[3] = target: Fuc(a1-2)Gal(b1-3)GalNAc(b1-3)Gal(b1-4)Glc
How it was run: as §1

[4] = target: Fuc(a1-2)Gal(b1-3)GalNAc(b1-4)[Neu5Ac(a2-3)]Gal(b1-4)Glc
How it was run: as §1

[5] = target: Fuc(a1-2)Gal(b1-3)[Fuc(a1-4)]GlcNAc
How it was run: as §1

Fuc(a1-2)Gal(b1-4)Glc = target: Fuc(a1-2)Gal(b1-4)Glc
How it was run: as §1

Fuc(a1-2)Gal(b1-4)Glc6S = target: Fuc(a1-2)Gal(b1-4)Glc6S
How it was run: as §1

Fuc(a1-2)Gal(b1-4)GlcNAc = target: Fuc(a1-2)Gal(b1-4)GlcNAc
How it was run: as §1

[6] = target: Fuc(a1-2)Gal(b1-4)GlcNAc(b1-3)Gal(b1-4)GlcNAc
How it was run: as §1

[7] = target: Fuc(a1-2)Gal(b1-4)GlcNAc(b1-3)Gal(b1-4)GlcNAc(b1-3)Gal(b1-4)GlcNAc
How it was run: as §1

[8] = target: Fuc(a1-2)Gal(b1-4)GlcNAc6S
How it was run: as §1

[9] = target: Fuc(a1-2)Gal(b1-4)[Fuc(a1-3)]GalNAc(b1-3)Gal(b1-4)[Fuc(a1-3)]GlcNAc
How it was run: as §1

[10] = target: Fuc(a1-2)Gal(b1-4)[Fuc(a1-3)]GalNAc(b1-3)Gal(b1-4)[Fuc(a1-3)]GlcNAc(b1-3)Gal(b1-4)[Fuc(a1-3)]GalNAc
How it was run: as §1

[11] = target: Fuc(a1-2)Gal(b1-4)[Fuc(a1-3)]GlcNAc
How it was run: as §1

Fuc(a1-2)Gal6S(b1-4)Glc = target: Fuc(a1-2)Gal6S(b1-4)Glc
How it was run: as §1

[12] = target: Fuc(a1-2)Gal6S(b1-4)Glc6S
How it was run: as §1

[13] = target: Fuc(a1-2)Gal6S(b1-4)GlcNAc
How it was run: as §1

Fuc(a1-2)GlcNAc = target: Fuc(a1-2)GlcNAc
How it was run: as §1

Fuc(a1-2)[Gal(a1-3)]Gal = target: Fuc(a1-2)[Gal(a1-3)]Gal
How it was run: as §1

[14] = target: Fuc(a1-2)[Gal(a1-3)]Gal(b1-3)GlcNAc
How it was run: as §1

[15] = target: Fuc(a1-2)[Gal(a1-3)]Gal(b1-4)Glc
How it was run: as §1

[16] = target: Fuc(a1-2)[Gal(a1-3)]Gal(b1-4)GlcNAc
How it was run: as §1

[17] = target: Fuc(a1-2)[Gal(a1-3)]Gal(b1-4)[Fuc(a1-3)]GlcNAc
How it was run: as §1

[18] = target: Fuc(a1-2)[Gal(a1-4)]Gal(b1-4)GalNAc
How it was run: as §1

[19] = target: Fuc(a1-2)[GalNAc(a1-3)]Gal
How it was run: as §1

[20] = target: Fuc(a1-2)[GalNAc(a1-3)]Gal(b1-3)GlcNAc
How it was run: as §1

[21] = target: Fuc(a1-2)[GalNAc(a1-3)]Gal(b1-4)Glc
How it was run: as §1

[22] = target: Fuc(a1-2)[GalNAc(a1-3)]Gal(b1-4)GlcNAc
How it was run: as §1

B1: STA (Solanum tuberosum) (protein)
chain: NASAPLPYPQCGLKKGGGKCIKTGECCSIWGWCGTTSDYCAPGYCQKQCPGPYPQGRCGWQANGKSCPTGTGQCCSNAGWCGTTSDYCAPNNCQSQCKLPPPPPSPPPPPPSPPPPSPPPPPPSPPPPSPSPPPPPPSPPPPSPPPPSPPPPSPPPPPSPSPPPPPPSPPPPPPPLPYPQCGMKKGGGKCIKTGECCSIWGWCGTTSKYCSPGYCQMQCPDPYPEGRCGWQANGKSCPTGTGQCCSNAGWCGTTSAYCAPVNCQAQCNTTTLTSPIKNRMRGIESFMLNVV
glycan array binding signal (z-score) (Fuc(a1-2)Gal): -0.504 | glycan array binding signal (z-score) (Fuc(a1-2)Gal(b1-3)GalNAc): -0.505 | glycan array binding signal (z-score) [1]: -0.501 | glycan array binding signal (z-score) [2]: -0.498 | glycan array binding signal (z-score) [3]: -0.507 | glycan array binding signal (z-score) [4]: -0.497 | glycan array binding signal (z-score) [5]: -0.507 | glycan array binding signal (z-score) (Fuc(a1-2)Gal(b1-4)Glc): -0.508 | glycan array binding signal (z-score) (Fuc(a1-2)Gal(b1-4)Glc6S): -0.504 | glycan array binding signal (z-score) (Fuc(a1-2)Gal(b1-4)GlcNAc): 0.574 | glycan array binding signal (z-score) [6]: 1.09 | glycan array binding signal (z-score) [7]: 0.92 | glycan array binding signal (z-score) [8]: 0.551 | glycan array binding signal (z-score) [9]: -0.51 | glycan array binding signal (z-score) [10]: -0.504 | glycan array binding signal (z-score) [11]: -0.516 | glycan array binding signal (z-score) (Fuc(a1-2)Gal6S(b1-4)Glc): -0.494 | glycan array binding signal (z-score) [12]: -0.491 | glycan array binding signal (z-score) [13]: -0.512 | glycan array binding signal (z-score) (Fuc(a1-2)GlcNAc): -0.508 | glycan array binding signal (z-score) (Fuc(a1-2)[Gal(a1-3)]Gal): -0.511 | glycan array binding signal (z-score) [14]: -0.493 | glycan array binding signal (z-score) [15]: -0.51 | glycan array binding signal (z-score) [16]: 2.57 | glycan array binding signal (z-score) [17]: -0.504 | glycan array binding signal (z-score) [18]: 0.418 | glycan array binding signal (z-score) [19]: -0.488 | glycan array binding signal (z-score) [20]: -0.511 | glycan array binding signal (z-score) [21]: -0.506 | glycan array binding signal (z-score) [22]: 2.86
